The source gives no read counts; variants with many changes may rest on few reads.
B1: CPEB3 Ribozyme (parent)
chain: UAACAGGGGGCCACAGCAGAAGCGUUCACGUCGCAGCCCCUGUCAGAUUCUGGUGAAUCUGCGAAUUCUGCUGUAUAUCUC

Variants of: B1
Assay: self-cleavage, relative activity (ratio to wild type); higher = more cleavage; in vitro, sequencing
Method in brief: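 For each CPEB3 ribozyme variant, relative activity is its cleaved/total read fraction divided by the unmutated ribozyme's. Barcoded error-prone PCR libraries were transcribed by T7 RNA polymerase (5 hours, 37°C) and held in DNase I for 15 min before an EDTA stop, with cleavage occurring throughout. Template-switching reverse transcription and Illumina sequencing were used to read the RNAs. A 5-read minimum applied, and results are the mean of three batches.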

Variant | self-cleavage
UAACAGGGGGGCGCAGCAGAAGCGUUCGCGUCGCAGCCCUUGUCAGAUUCCGGUGAAUGUGCGAAUUCUGCUGUAUGUCUC | 0.05
UAACAGGGGGGCGCAGCAGAAGCGUUCACGUCGCAGCCCCUGUCAGAUUCUGGUGAAUCUGCGAAUUCUGCUGUGUAUCUC | 0.41
UAACAGGGGGGCGCAGCAGAAGCGUUGACGUCGCAGCCCCUGUCAGAUUCUGGUGAAUCUGGGAAUUCUGCUGCAUAUCUC | 0.04
UAACAGGGGGGCGCAGCAGAAGCGCUCACGUUGCAGCCCCUGUCAGAUUCUGGUGAAUCCGCGAAUCCUGCUGUAUAUCUC | 0.04
UAACAGGGGGGCGCAGCAGAAGCGUUCACGUCGCAGCCCCUGCCAGAUUCUGGUGAAUCUGCGAAUUCUGCUGUAUAUCUC | 0.41
UAACAGGGGGGCUCGGCAGAAGCGUUCACGUCGCAGCCCCUGUCAGAUUCUGGUGAAUCUGCGAGUUAAGCUGUAUAUCUC | 0.06
UAACAGGGGGGCUCAGCUGAAGCGUUCACGUCGCAGCCCCUGUCAGAUUCUGGUGAAUCUGCGUAUUCGGCUGUAUAUCUC | 0.1
UAACAGGGGGGCUCAGCAGAAGCGUUCGCGUCGCAGCCCCUGUCAGAUUCUGGUGAAUCUGCGAAUUCCGCUGUAUACCUC | 0.06
UAACAGGGGGGCUCAGCAGAAGCGUUCACGUCGCAGCCCCAGUCAGAUCCUGGUGAGUCUGCGAAUUCUGCUGUAUAUCCC | 0.08
UAACAGGGGGGCUCAGCAGAAGCGUUCACGUCGCAGCCCCUGUCAGAAUCUGGUGAAUCUGCGAAUUCUGCAGUAUAUCUC | 0.09
UAACAGGGGGGCACCGCAGAAGCGUUCACGUCGCAGCCCCUGUCUGAUUCUGGUGAAUCUGCGAAUCCUGCUGUAUAUCUC | 0.15
UAACAGGGGGGCACGGCAGUAGCGUUCACGUCGCAGCCCCUGUCUGAUUCUGGUGAAUCUGCGAAUUCUGCUGUAUAUCUC | 0.05
UAACAGGGGGGCACGGCAGAAGCGUUCACGUCGCUGCCCCUGUCAGAUUCUGGUGAAUCUGCGAAUUCUGCUGUAUAUCUC | 0.07
UAACAGGGGGGCACGGCAGAAGCGUUCACGUCGCAGCCCCUGUCUGAUUCUGGUGAAUCUGCGAAUUCUGCUGUAUACCUC | 0.08
UAACAGGGGGGCACGGCAGAAGCGUUCACGUCGCAGCCCCUGUUAGAUUCUGGUGAAUCUGCGAAUUCUGCUGUAUAUCUC | 0.23
UAACAGGGGGGCACGGCAGAAGCGUUCACGUCGCAGCCCCUGUCAGAUUCUGGUGAAUCUGCGAAUUCUGCUGUAUACCUC | 0.54
UAACAGGGGGGCACGGCAGAAGCGUUCACGUCGCAGCCCCUGUCAGAUUCUGGUGAAUCUGCGAAUUCUGCUGUAUAUCCC | 0.2
UAACAGGGGGGCACUGCAGUAGCGUUCACGUCGCAGCCCCAGUCAGAUUCUGGUGGAUCUGCGAACUCUGCUGUAUAUCUC | 0
UAACAGGGGGGCACUGCAGAGGCGUUCACGUCGCAGCCCCUGUCAGAUUCUGGUGAGUCUGCGAAUUCUGCUGUAUAACUC | 0.08
UAACAGGGGGGCACUGCAGAAGCGUUCACGUCGCAGCCCCUGUCGGAUUCUGGUGAAUCUGCGGAUUCUGCUGUACAUCUC | 0.08
UAACAGGGGGGCACUGCAGAAGCGUUCACGUCGCAGCCCCUGUCGGAUUCUGGUGAAUCUGCGAAUUCUGCCGUAUAUCUC | 0.23
UAACAGGGGGGCACUGCAGAAGCGUUCACGUCGCAGCCCCUGUCGGAUUCUGGUGAAUCUGCGAAUUCUGCUGUAUAUCCC | 0.18
UAACAGGGGGGCACUGCAGAAGCGUUCACGUCGCAGCCACUGUCAGAUUCUGGUGAAUCUGCGAAUUCAGCAGUAUAUCUC | 0.13

Variant | self-cleavage
UAACAGGGGGGCACUGCAGAAGCGUUCACCUCGCUGCCCCUGUCAGAUUCUGGUGAAUCUGCGAAUUCUGCUGUAUAUCCC | 0.07
UAACAGGGGGGCACUGCAGAAGCGUACACGUCGCAGCCCCUGUCAGAUUCCGGUGAAUCUGCGAAUUCUGCUGUAUAUCUC | 0.1
UAACAGGGGGGCACUGCAGAAGCGUUCACGACGCAGCCCCUGUCAGAUUCUGGUGAAUCUGCGAAUUCUGCUGUAUAUCUC | 0.12
UAACAGGGGGGCACUGCAGAAGCGUUCACGUCGCAGCCCCUGUCAGAUACUGGUGAAUCAGCGAAUUCUGCUGUCUAUCUC | 0.1
UAACAGGGGGGCACUGCAGAAGCGUUCACGUCGCAGCCCCUGUCAGAUUCAGGUGAAUCUGCGAAUUCUGCUGUAUAUCUC | 0.36
UAACAGGGGGGCACUGCAGAAGCGUUCACGUCGCAGCCCCUGUCAGAUUCUGGUGAAUCAGCGGAUUCUGCUGUACAUCUC | 0.07
UAACAGGGGGGCACAGCCGAAGCGUUCACGUCGCAGCCCCUGUCAGAUUCUGGUGAAUCUGCGAAUUCUGCUGUAUACCUC | 0.09
UAACAGGGGGGCACAGCGGGAGCGUUCACGUCGCGGCCCCUGUCAGGUUCUGGUGAAUCUGCGAAUUCUGCUGUAUACCUC | 0.09
UAACAGGGGGGCACAGCGGUAGCGUUCACGUCGCAGCCCCUGUCAGAUUCUGGUGAAUCUGCGAAUUCUGCGGUAUACUUC | 0.17
UAACAGGGGGGCACAGCGGAAGCGUUCACGUCGCAGCCCCUGUCAGAUUCUGGUGGAUCUGCGAAUUCCGCUGUAUAUCUC | 0.2
UAACAGGGGGGCACAGCGGAAGCGUUCACGUCGCAGCCCCUGUCAGAUUCUGGUGAAUCUGCGGAUUCUGCUGUAUAUCCC | 0.08
UAACAGGGGGGCACAGCGGAAGAGUUCACGUCGCAGCCCCUGUCAGAUUCGGGUGAAUCUGCGAAUUCUGCAGUAUAUCUC | 0.04
UAACAGGGGGGCACAGCGGAAGCGUUCAUGUCGCAGCCCCUGUCCGAUUCUGGUGGAUCAGCGAAUUCUGCUGUAUAUCUC | 0.17
UAACAGGGGGGCACAGCGGAAGCGCUCACGUCGCAGCCCCUGUCAGAUUCUGGUGAUUCUGCGAACUCUGCUGUAUGUCUC | 0.02
UAACAGGGGGGCACAGCGGAAGCGGUCACGUCGCAGCACCUGUCAGAUUCUGGUGAAUCUGCGAAUUCUGCCGUAUACCUC | 0.05
UAACAGGGGGGCACAGCUGGAGCGUUCACGGCGCAGCCCCUGUCAGAUUCUGGUGAAUCUGCCAAUUCUGCUGUAUGUCUC | 0.04
UAACAGGGGGGCACAGCUGGAGCGUUCACGUCGCAGCCCCUGUCAGAUUCUGGAGAAACUGCGAAUUCUGCUGUAUAUCUC | 0.08
UAACAGGGGGGCACAGCUGAGGCGUUCACGUCGCAGACCCUGUCGGAUUCUGGUGAAUCCGCGAAUUCUGCUGUAUAUCUC | 0.03
UAACAGGGGGGCACAGCUGAAGCGUACACGUCGCAGCCCCUGUCAGAUCCUGGUGAAUCCGCGAAUUCUGCUGUAUAUCUC | 0.03
UAACAGGGGGGCACAGCUGAAGCGUUCACGUCGCAGCCCCUGUCAGAUUCUGGAGAAUCUGCGAAUUCUGCUGUAUAUCUC | 0.5
UAACAGGGGGGCACAGCUGAAGCGUUCACGUCGCAGCCCCUGUCAGAUUCUGGUGAAUCCGCGAAUUCUGCUGUAUAUCUC | 0.19
UAACAGGGGGGCACAGCAGGAGCGUUCACGUCACAGCCCCCGUCAGAUUCUGGUGAAUCUGCGAAUUCUGCUGUAUAUCUC | 0.14
UAACAGGGGGGCACAGCAGGAGCGCUCGCGUCGCAGCCCCUGUCAGAUUCUGGUGAAUCUGCGAAUUCUGCUGUAUAUCUC | 0.41

Variant | self-cleavage
UAACAGGGGGGCACAGCAGGAGCGUCCACGUCGCAGCCCCUGUCAGAUUCUGGCGUAUCUGCGAAUUCUGCUGUAUAUCUC | 0.09
UAACAGGGGGGCACAGCAGGAGCGUUCACGUCGCAGCCCCCGUCAGAUUCUGGUGGAUCAGCGAAUUCUGCUGUAUAUCUC | 0.18
UAACAGGGGGGCACAGCAGGAGCGUUCACGUCGCAGCCCCUGACAGAUUCCGGUGAAUAUGCGAAUUCUGCUGUAUAUCUC | 0.05
UAACAGGGGGGCACAGCAGUAGCGUUCACGUCGCAGCCCCUGUCUGAUUCUGGUGAAUCUGCGUAUUCUGCUGUAUAUCUC | 0.04
UAACAGGGGGGCACAGCAGUAGCGUUCAUGUCGCAGCCCCUGUCAGAUUCUGGUGAAUCUGCGAAUUCUGCUGUAUAUCCC | 0.29
UAACAGGGGGGCACAGCAGUAGCGUUCACGUCACAGCCCCUGUCAGAUUCUGGUGAAUCUGCCAGUUCUGCUGUAUAUCUC | 0.04
UAACAGGGGGGCACAGCAGUAGCGUCCACGUCGCAGCCCCUGUCAGAUUCUGGUGAAUCUGCGAACUCUGCUGUAUACCUC | 0.03
UAACAGGGGGGCACAGCAGUAGCGUUCACGUCGCAGCCCCUGUCAGAUUCUGGUGAAUCUGCGAACUCAGCUGUAUAUCUC | 0.03
UAACAGGGGGGCACAGCAGAGGCGUUCACGUCGCAGCCCCUGUCUGAUUCUGGUGAAUCUGCGAAUUCUGCUGUAUAUCUC | 0.06
UAACAGGGGGGCACAGCAGAGGCGCUCACGUCGCAGCCCCAGUCAGAUUCUGGUGGAUCUGCGAAUUCUGCUGUAUAUCUC | 0.04
UAACAGGGGGGCACAGCAGAGGCGUUCACGUCGCAGCCCCCGUCAGGUUCUGUUGAAUCUGCGGAUUCUGCUGUAUAUCUC | 0.05
UAACAGGGGGGCACAGCAGAGGCGUUCACGUCGCAGCCCCUGUCAGAUCCCGGUGAAUCUGCGAAUUCUGCUGUAUAGCUC | 0.16
UAACAGGGGGGCACAGCAGAGGCGUUCACGUCGCAGCCCCUGUCAGAUUCUGGUGAAUCUGCGAACUCUGCUGUAUAUCUC | 0.25
UAACAGGGGGGCACAGCAGAUGCGCACACGCCGCAGCCCCUGUCAGAUUCUGGUGAAUCUGCGAAUUCUGCUGUAUAUCUC | 0.06
UAACAGGGGGGCACAGCAGAUGCGUACACUUCGCAGCCCCUGUCGGAUUCUGGUGCAUCAGCGAAUUCUGCUGUAUAUCUC | 0.04
UAACAGGGGGGCACAGCAGAUGCGUUCACGUCGCAGCCCCUGACAGAUUCUGGUGAAUCUGCGAAUUCCGCUGUAUAUCUC | 0.25
UAACAGGGGGGCACAGCAGAAGCGUUCGCGUCGCAGCCCCUGUCAGAUUCUGGUGCAUCUGCGAAUUCUGCUGUAUAUCUC | 0.16
UAACAGGGGGGCACAGCAGAAGCGUUCGCGACGCAGCCCCCGUCAGAUUCUGGUGAAUCUGCGAAUUCUGCUGUAUAUCUC | 0.07
UAACAGGGGGGCACAGCAGAAGCGUUCGCGCCGCAGCCCCUGUCAGAUUCUGGUGAGUCUGCGAAUUCUGCUGUAUAACAC | 0.06
UAACAGGGGGGCACAGCAGAAGCGUUCGCGUCGCAGCCCCUGUCAGAUUCAGGUGAAUCUGCGAAUUCUGCUGUAUAUCUC | 0.12
UAACAGGGGGGCACAGCAGAAGCGUUCUCGACGCAGCCCCUGUCGGGUUCUGGUGAAUCUGCGAAUUCUGCUGUAUAUCUC | 0.04
UAACAGGGGGGCACAGCAGAAGCGUUCACGUCGCCCCCCCCGUCAGAUUCUGGUGAAUCUGCGAAUUCUGCUGUAUAUCUC | 0.46
